Experimental data taken from publication PMC7511960.
Results are given in words; binding and its absence hold for the method and conditions named. Binding seen in cells or lysates may run through a third protein. Some binding calls cover weakened binding; strength is not graded here. Tags and fused reporters may be left off the sequences shown.

By UniProt entry, the sequences of proteins in these tests, tags left out.
UniProt O95863: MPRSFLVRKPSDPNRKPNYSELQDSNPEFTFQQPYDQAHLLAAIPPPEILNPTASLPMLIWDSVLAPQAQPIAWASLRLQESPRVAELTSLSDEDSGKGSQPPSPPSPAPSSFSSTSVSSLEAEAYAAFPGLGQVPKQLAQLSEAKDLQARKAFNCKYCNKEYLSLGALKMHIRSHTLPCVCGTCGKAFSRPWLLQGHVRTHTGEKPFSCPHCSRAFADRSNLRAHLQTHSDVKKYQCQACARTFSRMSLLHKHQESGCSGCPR

What was measured:
[1] = molecular target: Flag-tagged Snail1, O95863; assay: co-IP; HEK293T co-transfected; Flag-Snail1 immunoprecipitated and protein G-agarose, 4 h at 4 °C, Triton X-100 lysis buffer (50 mM Tris-HCl pH 7.4, 150 mM NaCl, 1 mM EDTA, 1% Triton X-100); blot for the GFP-tagged proteins; settings: remark: other sources report otherwise
Flag-tagged Snail1 = Flag-tagged Snail1 (UniProt O95863); assay: as above

binding [1]	binding (Flag-tagged Snail1)	Binder
no binding	–	GFP-USP28, Q96RU2 1-1077 (enzyme) MTAELQQDDAAGAADGHGSSCQMLLNQLREITGIQDPSFLHEALKASNGDITQAVSLLTDERVKEPSQDTVATEPSEVEGSAANKEVLAKVIDLTHDNKDDLQAAIALSLLESPKIQADGRDLNRMHEATSAETKRSKRKRCEVWGENPNPNDWRRVDGWPVGLKNVGNTCWFSAVIQSLFQLPEFRRLVLSYSLPQNVLENCRSHTEKRNIMFMQELQYLFALMMGSNRKFVDPSAALDLLKGAFRSSEEQQQDVSEFTHKLLDWLEDAFQLAVNVNSPRNKSENPMVQLFYGTFLTEGVREGKPFCNNETFGQYPLQVNGYRNLDECLEGAMVEGDVELLPSDHSVKYGQERWFTKLPPVLTFELSRFEFNQSLGQPEKIHNKLEFPQIIYMDRYMYRSKELIRNKRECIRKLKEEIKILQQKLERYVKYGSGPARFPLPDMLKYVIEFASTKPASESCPPESDTHMTLPLSSVHCSVSDQTSKESTSTESSSQDVESTFSSPEDSLPKSKPLTSSRSSMEMPSQPAPRTVTDEEINFVKTCLQRWRSEIEQDIQDLKTCIASTTQTIEQMYCDPLLRQVPYRLHAVLVHEGQANAGHYWAYIYNQPRQSWLKYNDISVTESSWEEVERDSYGGLRNVSAYCLMYINDKLPYFNAEAAPTESDQMSEVEALSVELKHYIQEDNWRFEQEVEEWEEEQSCKIPQMESSTNSSSQDYSTSQEPSVASSHGVRCLSSEHAVIVKEQTAQAIANTARAYEKSGVEAALSEVMLSPAMQGVILAIAKARQTFDRDGSEAGLIKAFHEEYSRLYQLAKETPTSHSDPRLQHVLVYFFQNEAPKRVVERTLLEQFADKNLSYDERSISIMKVAQAKLKEIGPDDMNMEEYKKWHEDYSLFRKVSVYLLTGLELYQKGKYQEALSYLVYAYQSNAALLMKGPRRGVKESVIALYRRKCLLELNAKAASLFETNDDHSVTEGINVMNELIIPCIHLIINNDISKDDLDAIEVMRNHWCSYLGQDIAENLQLCLGEFLPRLLDPSAEIIVLKEPPTIRPNSPYDLCSRFAAVMESIQGVSTVTVK
–	binds	GFP-USP29(USP), catalytic USP domain (amino acids 284-922) (domain or fragment, UniProt Q9HBJ7 284-922) QQGFPNLGNTCYMNAVLQSLFAIPSFADDLLTQGVPWEYIPFEALIMTLTQLLALKDFCSTKIKRELLGNVKKVISAVAEIFSGNMQNDAHEFLGQCLDQLKEDMEKLNATLNTGKECGDENSSPQMHVGSAATKVFVCPVVANFEFELQLSLICKACGHAVLKVEPNNYLSINLHQETKPLPLSIQNSLDLFFKEEELEYNCQMCKQKSCVARHTFSRLSRVLIIHLKRYSFNNAWLLVKNNEQVYIPKSLSLSSYCNESTKPPLPLSSSAPVGKCEVLEVSQEMISEINSPLTPSMKLTSESSDSLVLPVEPDKNADLQRFQRDCGDASQEQHQRDLENGSALESELVHFRDRAIGEKELPVADSLMDQGDISLPVMYEDGGKLISSPDTRLVEVHLQEVPQHPELQKYEKTNTFVEFNFDSVTESTNGFYDCKENRIPEGSQGMAEQLQQCIEESIIDEFLQQAPPPGVRKLDAQEHTEETLNQSTELRLQKADLNHLGALGSDNPGNKNILDAENTRGEAKELTRNVKMGDPLQAYRLISVVSHIGSSPNSGHYISDVYDFQKQAWFTYNDLCVSEISETKMQEARLHSGYIFFYMHNGIFEELLRKAENSRLPSTQAGVIPQGEYEGDSLYRPA
